In paper PMC4336329 (PLoS ONE, 2015):
Screen size: about 310,000 compounds; about 14,000 (4.5%) showed an effect of 50% or more. The effect is printed as a negative number. Some of the results follow.

molecular target: human ether-à-go-go-related gene (hERG) potassium channel (human, UniProt Q12809); experiment: primary screen, population patch clamp on CHO cells stably expressing hERG
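Note: peak tail current of the secondary pulse compared with the same well before compound.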

human ether-à-go-go-related gene (hERG) potassium channel, sequence (Q12809 whole entry, looked up): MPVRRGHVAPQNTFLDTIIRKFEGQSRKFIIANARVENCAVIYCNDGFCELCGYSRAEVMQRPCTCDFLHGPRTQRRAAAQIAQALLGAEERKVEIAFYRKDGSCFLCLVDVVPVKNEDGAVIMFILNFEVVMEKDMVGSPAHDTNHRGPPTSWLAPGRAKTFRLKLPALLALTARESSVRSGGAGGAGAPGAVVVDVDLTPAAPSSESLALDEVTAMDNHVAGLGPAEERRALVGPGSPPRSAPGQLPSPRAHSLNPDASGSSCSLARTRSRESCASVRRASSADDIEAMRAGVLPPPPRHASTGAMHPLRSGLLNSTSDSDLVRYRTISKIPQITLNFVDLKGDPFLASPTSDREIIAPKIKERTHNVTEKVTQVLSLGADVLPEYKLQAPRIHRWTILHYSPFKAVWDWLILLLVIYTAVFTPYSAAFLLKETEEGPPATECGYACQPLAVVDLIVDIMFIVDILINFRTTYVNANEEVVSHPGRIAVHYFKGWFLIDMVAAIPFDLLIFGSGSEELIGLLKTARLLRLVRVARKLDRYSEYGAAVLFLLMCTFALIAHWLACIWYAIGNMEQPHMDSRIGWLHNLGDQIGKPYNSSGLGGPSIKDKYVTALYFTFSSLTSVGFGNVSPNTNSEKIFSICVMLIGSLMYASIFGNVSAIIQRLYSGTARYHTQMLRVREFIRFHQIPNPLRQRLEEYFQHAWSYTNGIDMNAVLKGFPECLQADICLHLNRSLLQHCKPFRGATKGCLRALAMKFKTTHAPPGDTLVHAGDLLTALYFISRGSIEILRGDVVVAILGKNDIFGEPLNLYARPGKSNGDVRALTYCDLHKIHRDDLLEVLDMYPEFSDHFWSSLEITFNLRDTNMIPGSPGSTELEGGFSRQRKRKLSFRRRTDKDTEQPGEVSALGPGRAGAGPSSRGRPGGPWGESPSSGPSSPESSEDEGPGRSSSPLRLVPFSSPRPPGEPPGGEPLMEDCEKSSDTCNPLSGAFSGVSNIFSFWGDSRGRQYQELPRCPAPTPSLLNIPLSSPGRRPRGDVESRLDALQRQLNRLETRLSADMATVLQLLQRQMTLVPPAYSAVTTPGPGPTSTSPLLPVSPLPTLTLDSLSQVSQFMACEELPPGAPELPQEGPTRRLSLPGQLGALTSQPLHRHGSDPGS

Compound | hERG current change (%, negative = inhibition) at 10uM
Cc1ccc(C)n1-c1nn(S(=O)(=O)c2ccccc2)c2cccc(F)c12 | 12.9%
COc1ccc(OC)c(NC(=O)CN(c2ccc(C)cc2)S(=O)(=O)c2c(C)n[nH]c2C)c1 | 12.8%
Cc1cc(C)n(-c2nncn2/N=C/c2ccccc2F)n1 | 3.06%
CCC1Oc2ccccc2N(CC(=O)NCCc2ccc(OC)c(OC)c2)C1=O (centres unmarked) | -0.0515%
COc1ccc(NC(=O)NC2CCCCCCC2)cc1OC | 3.21%
O=C(C1CCN(Cc2ccccc2)CC1)N1CCN(C/C=C/c2ccccc2)CC1.O=C(O)C(=O)O | -33.3%
C/C(=N\Nc1ccccn1)c1ccc(C#N)cc1 | -19.3%
CC1CCN(C(=S)NC(=O)C2CCCCC2)CC1 | 10.2%
Cn1c(=O)cc(SCC(=O)NCC2CCCO2)c2ccccc21 (centres unmarked) | 6.34%
COc1ccc(-c2nc3c4ccccc4ccn3c2CN2CCCCC2)cc1 | -22.1%
CCN=C(N/N=C/c1ccc([N+](=O)[O-])cc1)SC.I | -20.3%
C#CCSc1nsc(SCC#C)c1C#N | 11.2%
CC(C)(C)c1ccc(Cn2nnc3c(=O)[nH]c(C4CCCN(C(=O)c5cccs5)C4)nc32)cc1 (centres unmarked) | -0.278%
CCOC(=O)C(/C=C(\C#N)C(=O)OCC)=C(/N)N1CCN(c2ccccc2)CC1 | 15.6%
O=C(Oc1cccc(NC(=O)c2ccco2)c1)c1ccc(Br)c(S(=O)(=O)N2CCCCC2)c1 | 7.55%
Cc1nn(-c2ccccc2)c2c1C(c1ccccc1)C(C#N)=C(N)O2 (centres unmarked) | 1.86%
OCCC1CN(Cc2ccc(Oc3ncccn3)cc2)CCN1CCc1ccccc1 (centres unmarked) | -55.2%
CCOC(=O)c1c(-c2ccc(OC)cc2)csc1NC(=O)CNCc1ccco1 | 2.2%
Cc1n[nH]c(=S)n1/N=C/c1ccc(-c2ccc(Cl)cc2)o1 | 17.9%

Compound | hERG current change (%, negative = inhibition) at 10uM
CC1(C)CC(=O)C(C=NCCN2CCN(CC(=O)Nc3ccccc3)CC2)=C(O)C1 | -5.37%
Cc1cc(NCCCN)nc(-c2ccccc2O)n1 | 10%
Cc1ccccc1NC(=O)C1CCCN(S(=O)(=O)c2cnc[nH]2)C1 (centres unmarked) | -10.3%
O=C(O)c1ccc(/C=N\Nc2ccc(S(=O)(=O)N3CCOCC3)cc2[N+](=O)[O-])cc1 | -9.35%
COc1ccc(-c2cn[nH]c2-c2ccc(OC)cc2)cc1 | 8.51%
O=C(CN1CCN(S(=O)(=O)c2cccc(Cl)c2)CC1)NCC1(N2CCOCC2)CCCCC1 | -24.9%
Cc1ccc2cccc(OCCOCCOc3ccccc3Br)c2n1 | -1.98%
CC(C)CCC(C)NC(=O)c1ccc2nccnc2c1 (centres unmarked) | 0.52%
COc1ccc(C2N=C(c3ccccc3)C(C)(C)N2O)cc1 (centres unmarked) | 6.96%
CCOc1cc(N2CCOCC2)c(OCC)cc1NC(=O)COC(=O)c1cc(C)oc1C | -0.0866%
Cc1ccc(-c2cc(C(=O)N/N=C/c3c(C)nn(C)c3C)c3ccccc3n2)cc1C | 12.6%
CCCC(C)C(=O)Nc1nnc(CCc2ccccc2)s1 (centres unmarked) | 0.648%
COc1cc(NC(=O)CN2CCN(S(=O)(=O)c3ccc(C(C)C)cc3)CC2)cc(OC)c1 | -11.5%
COC(=O)/C(=C\c1cc(OC)c(OC)c(OC)c1)c1nc2ccccc2[nH]1.Cl | 19%
Cc1cc2oc(=O)cc(CN3CCCCC3)c2cc1C | 19.9%
c1ccc(-c2ccc(-c3ccccn3)s2)nc1 | -8.87%
Cc1onc(-c2c(Cl)cccc2Cl)c1NC(=O)NN(C)C | 20.6%
O=C1CN(C(=O)COc2ccc([N+](=O)[O-])cc2Cl)c2ccccc2N1 | -61.2%
CCOc1ccccc1N(CC(=O)NC1CCCC1)C(=O)CNC(=O)c1cccs1 | -3.75%

Compound | hERG current change (%, negative = inhibition) at 10uM
Cc1ccccc1NC(=O)CCN1CCN(CCO)CC1 | 15.6%
CCCN(Cc1ccccc1)C(=S)Nc1ccc(OCC)cc1 | -35.8%
COc1ccc(OC)c(-c2nc(CN3CCCCC3c3cccnc3)c(C)o2)c1 (centres unmarked) | -1.11%
COc1ccc(CC2(CO)COc3ccccc3C2=O)cc1 (centres unmarked) | -0.5%
C#CCSc1nnc(-c2ccc(OC)cc2)o1 | -14.3%
CC(=O)OCC(=O)[C@@]12OC(C)(C)O[C@@H]1CC1C3C[C@H](F)C4=CC(=O)C=CC4(C)[C@@]3(F)C(O)CC12C (some centres unmarked) | 17.6%
Cl.OC(CNCc1ccc(-c2ccccc2)cc1)c1ccccc1 (centres unmarked) | -16.1%
CCN1CCN(S(=O)(=O)c2ccc(Cl)c(C(=O)N(C)Cc3ccc(F)cc3)c2)CC1 | -25.1%
COc1ccc(S(=O)(=O)N(CC(=O)NCc2cccnc2)c2ccc(F)cc2)cc1OC | 4.62%
Cc1ccc(C(=O)N2CCC(C(=O)NC3CCCCCC3)CC2)cc1 | 11%
CCOc1cc(N2CCOCC2)c(OCC)cc1NC(=O)Cc1cccc(OC)c1 | -11%
CCCOC(=O)c1ccc(NC(=O)C2C3CCC(C3)C2C(=O)O)cc1 (centres unmarked) | 9.04%
CN1CC2(C(=O)c3ccccc3)CN(C)CC(C(=O)c3ccccc3)(C1)C2 | -53%
Cc1cc(OC(=O)N(C)C)nc(-c2ccc(C)c(Cl)c2)n1 | -4.35%
CC(=O)C1=C(O)C(=O)N(CCCn2ccnc2)C1c1ccc(Cl)cc1 (centres unmarked) | 7.44%
CCCCNC(=O)CSc1nc2ccccc2n1S(=O)(=O)c1ccc(Br)cc1 | -0.913%
O=c1c2ccccc2c2ccccc2c(=O)n1Cc1cccnc1 | 8.14%
CN(CC(=O)Nc1cccc(F)c1)C(=O)c1ccccc1CCc1ccccc1 | 3.08%
